The values that follow come from article PMC4336329 (PLoS ONE, 2015).

The campaign covered roughly 310,000 compounds. About 2,200 (0.71%) showed an effect of 50% or more. Effects have a minus sign here. This is one part of the list.

Chain of human ether-à-go-go-related gene (hERG) potassium channel (Q12809 whole entry, looked up): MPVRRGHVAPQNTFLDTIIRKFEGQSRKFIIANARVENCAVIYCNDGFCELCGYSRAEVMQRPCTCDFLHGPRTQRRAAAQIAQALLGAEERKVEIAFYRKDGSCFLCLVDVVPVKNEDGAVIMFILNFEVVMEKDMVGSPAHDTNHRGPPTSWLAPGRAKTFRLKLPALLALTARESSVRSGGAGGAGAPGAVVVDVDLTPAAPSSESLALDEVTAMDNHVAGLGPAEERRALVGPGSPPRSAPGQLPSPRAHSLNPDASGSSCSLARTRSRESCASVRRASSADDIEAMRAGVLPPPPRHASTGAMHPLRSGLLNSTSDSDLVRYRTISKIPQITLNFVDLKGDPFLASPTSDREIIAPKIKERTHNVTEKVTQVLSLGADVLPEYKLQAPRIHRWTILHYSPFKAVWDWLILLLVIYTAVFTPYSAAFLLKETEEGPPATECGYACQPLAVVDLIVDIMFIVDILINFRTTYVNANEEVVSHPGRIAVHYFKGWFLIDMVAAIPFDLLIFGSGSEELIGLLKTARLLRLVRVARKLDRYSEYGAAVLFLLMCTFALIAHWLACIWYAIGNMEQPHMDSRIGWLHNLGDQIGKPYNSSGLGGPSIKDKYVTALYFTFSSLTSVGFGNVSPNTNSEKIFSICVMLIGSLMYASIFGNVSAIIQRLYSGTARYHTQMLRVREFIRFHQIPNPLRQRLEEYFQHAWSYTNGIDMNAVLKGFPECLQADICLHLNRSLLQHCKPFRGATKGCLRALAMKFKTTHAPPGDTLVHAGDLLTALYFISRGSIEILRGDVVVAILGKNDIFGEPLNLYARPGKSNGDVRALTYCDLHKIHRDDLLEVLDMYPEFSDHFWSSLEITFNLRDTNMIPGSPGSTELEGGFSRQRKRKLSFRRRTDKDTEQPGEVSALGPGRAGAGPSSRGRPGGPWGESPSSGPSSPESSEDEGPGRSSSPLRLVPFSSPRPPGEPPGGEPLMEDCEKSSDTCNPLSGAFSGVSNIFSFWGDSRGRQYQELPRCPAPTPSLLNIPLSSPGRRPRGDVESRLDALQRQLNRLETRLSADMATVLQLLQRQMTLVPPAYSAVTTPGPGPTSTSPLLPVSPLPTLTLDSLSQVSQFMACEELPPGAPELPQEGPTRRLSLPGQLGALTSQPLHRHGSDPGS

This assay concerns the target human ether-à-go-go-related gene (hERG) potassium channel (human, UniProt Q12809). Kind of assay: primary screen, population patch clamp on CHO cells stably expressing hERG.
For the compound `Cc1ccc(SCC(=O)OCC(=O)Nc2ccc3[nH]c(=O)[nH]c3c2)cc1C`, the “hERG current change (%, negative = inhibition) at 1uM” value was found to be 12.5%.

As for `CCOC(=O)Cc1csc(NC(=O)C(C)(C)C)n1`, the “hERG current change (%, negative = inhibition) at 1uM” value came to 11.5%.

In the case of `O=C(Cn1cnc2cc([N+](=O)[O-])ccc2c1=O)Nc1cccc2ccccc12`, the “hERG current change (%, negative = inhibition) at 1uM” value is given as 2.57%.

As for `O=C(NCc1ccco1)c1nnc(Cc2ccc(F)cc2)o1`, the “hERG current change (%, negative = inhibition) at 1uM” value is reported as 4.3%.

Take `Cc1cccc(C)c1NC(=O)CSc1nnc(-c2ccco2)n1N`: the “hERG current change (%, negative = inhibition) at 1uM” value was determined as 11.5%.

Regarding `CCn1nc(C(=O)N2CCc3ccccc3C2)c2ccccc2c1=O`, the “hERG current change (%, negative = inhibition) at 1uM” value is 6.42%.

As to `Cc1ccc(S(=O)(=O)N(C)C)cc1NC(=S)N(C)C1CCN(C)CC1`, the “hERG current change (%, negative = inhibition) at 1uM” value stood at 16.4%.

`O/N=C1/CCCSc2ccccc21`: the “hERG current change (%, negative = inhibition) at 1uM” value is given as 2.76%.

In the case of `CCN(CC(O)Cn1c2ccccc2c2ccccc21)S(=O)(=O)c1ccc(C)cc1` (centres unmarked), the “hERG current change (%, negative = inhibition) at 1uM” value was 12.9%.

`C/C(=N\NC(=O)C(=O)Nc1cc(Cl)ccc1Cl)c1ccncc1`: the “hERG current change (%, negative = inhibition) at 1uM” value was -0.787%.

Consider `C=C(C)CN1C(=O)C(O)(CC(=O)c2ccc3c(c2)OCCO3)c2ccccc21` (centres unmarked), for which the “hERG current change (%, negative = inhibition) at 1uM” value is on record as -5.96%.

In the case of `O=C(COC(=O)c1ccc(CO)cc1)NCc1cccs1`, the “hERG current change (%, negative = inhibition) at 1uM” value is 10.4%.

Regarding `Cc1ccc(C)c(NC(=O)N2CCCCCC2)c1`, the “hERG current change (%, negative = inhibition) at 1uM” value was determined as 12.7%.

Take `Cn1cc(C(=O)N2CCN(C(=O)c3ccco3)CC2)c2c3ccccc3n(C)c2c1=O`: the “hERG current change (%, negative = inhibition) at 1uM” value was 3.33%.

For `CCCCCN(C(=O)CCC(=O)OCC(=O)Nc1cccc(CC)c1)c1c(N)n(CCCC)c(=O)[nH]c1=O`, the “hERG current change (%, negative = inhibition) at 1uM” value stood at 9.04%.

`Cc1cc(=O)oc(C)c1C(=O)n1nc(C)c2c1C[C@@H]1[C@H]2C1(C)C`: the “hERG current change (%, negative = inhibition) at 1uM” value is given as 6.09%.

`C=CCn1c(SCC(=O)Nc2c(C)cccc2C)nnc1-c1cnccn1`: the “hERG current change (%, negative = inhibition) at 1uM” value came out at 4.97%.

On to `CCOC(=O)N1CCC(N2C(=O)c3ccccc3C2Nc2ccc3c(c2)OCCO3)CC1` (centres unmarked), for which the “hERG current change (%, negative = inhibition) at 1uM” value was 7.16%.

For the compound `COc1ccccc1NC(=O)/C=C\c1ccco1`, the “hERG current change (%, negative = inhibition) at 1uM” value is 3.59%.

For the compound `Cl.O=C(O)c1cccc(Nc2nc(-c3ccccc3)nc3ccccc23)c1`, the “hERG current change (%, negative = inhibition) at 1uM” value is 22.4%.

`CCc1nn(CC(=O)N2CCC3(CC2)OCCO3)c(=O)c2cc3ccccc3n12`: the “hERG current change (%, negative = inhibition) at 1uM” value amounted to 9.77%.

`CCOC(=O)N1CCN(CC(=O)Nc2cc(OC)c(OC)cc2C#N)CC1`: the “hERG current change (%, negative = inhibition) at 1uM” value was 14.7%.

Take `CC(=C\c1ccccc1)/C=C1/SC(=S)N(CCCC(=O)O)C1=O`: the “hERG current change (%, negative = inhibition) at 1uM” value was found to be 17.5%.

Consider `C=CCc1ccccc1OCCOc1ccc([N+](=O)[O-])cc1/C=N/NC(N)=O`, for which the “hERG current change (%, negative = inhibition) at 1uM” value is 6.5%.

For `Cc1c(C(=O)c2cccc([N+](=O)[O-])c2)c2ccccn2c1CCC#N`, the “hERG current change (%, negative = inhibition) at 1uM” value was found to be 8.34%.

Consider `Cc1ccc(-n2c(SCC(=O)Nc3ccc4c(c3)OCO4)nnc2-c2ccoc2C)cc1`, for which the “hERG current change (%, negative = inhibition) at 1uM” value is given as -2.17%.

Consider `COc1ccc2oc(=O)c(C(=O)Oc3ccc(NC(C)=O)cc3)cc2c1`, for which the “hERG current change (%, negative = inhibition) at 1uM” value is listed as -0.896%.

`N=Nc1c(O)n(CC(=O)Nc2ccccc2)c2ccccc12`: the “hERG current change (%, negative = inhibition) at 1uM” value was determined as 9.49%.

As to `CCN1C(=O)/C(=C\N2CCN(c3ccccc3)CC2)SC1=S`, the “hERG current change (%, negative = inhibition) at 1uM” value is recorded as 10%.

As for `COc1cc(/C(C)=N/NC(=O)c2cccc(S(=O)(=O)N3CCCC3)c2)cc(OC)c1OC`, the “hERG current change (%, negative = inhibition) at 1uM” value was 15%.

In the case of `C=CCN(CC=C)S(=O)(=O)c1ccc(NC(=S)NC(=O)Cc2ccc(OC)cc2)cc1`, the “hERG current change (%, negative = inhibition) at 1uM” value came out at 10.5%.

As for `COc1ccccc1NC(=O)CCNS(=O)(=O)c1ccc2c(c1)CCN2C(C)=O`, the “hERG current change (%, negative = inhibition) at 1uM” value was determined as 1.81%.

For `CCc1nc2ccccc2c(C(=O)Nc2cccc(C)c2)c1C`, the “hERG current change (%, negative = inhibition) at 1uM” value is 16.5%.

`COc1ccccc1/C=N/NC(=O)c1ccccc1NS(=O)(=O)c1ccc(C)cc1`: the “hERG current change (%, negative = inhibition) at 1uM” value is 10.9%.

As to `O=C(NC1CCCC1)C(c1ccc(Cl)cc1)N(C(=O)c1csnn1)C1CC1` (centres unmarked), the “hERG current change (%, negative = inhibition) at 1uM” value was found to be 8.05%.

With `CN(CCc1ccccn1)C(=O)CCNC(=O)Cn1cnc2ccccc2c1=O`, the “hERG current change (%, negative = inhibition) at 1uM” value came to 25.4%.

On to `CCC(=NCc1ccc2c(c1)OCO2)c1c(O)n(C2CCCCC2)c(=O)[nH]c1=O`, for which the “hERG current change (%, negative = inhibition) at 1uM” value is recorded as 1.39%.

In the case of `CCCC1C(=O)N2C(N(C)C)=Nc3ccc(C)cc3N2C1=O` (centres unmarked), the “hERG current change (%, negative = inhibition) at 1uM” value stood at 14.6%.

For `COc1ccc(C(=O)Nc2ccccc2C(=O)NCc2cccnc2)cc1`, the “hERG current change (%, negative = inhibition) at 1uM” value is listed as 4.97%.

With `Cc1cc(C)cc(NC(=O)c2ccc(NC3=NC4CS(=O)(=O)CC4S3)cc2)c1` (centres unmarked), the “hERG current change (%, negative = inhibition) at 1uM” value was determined as 6.88%.

As for `CCOc1ccccc1Nc1nc(-c2sc(NC(=O)c3ccc([N+](=O)[O-])cc3)nc2C)cs1`, the “hERG current change (%, negative = inhibition) at 1uM” value was found to be 5.05%.

`Cc1nn(CC2CC2)c(=O)n1-c1cccc(Cl)c1`: the “hERG current change (%, negative = inhibition) at 1uM” value was determined as 7.37%.

As to `COc1ccc(NC(=O)c2cc([N+](=O)[O-])nn2Cc2ccccc2)c(C)c1`, the “hERG current change (%, negative = inhibition) at 1uM” value amounted to 4.91%.

Regarding `O=S(=O)(NCc1ccc(C(F)(F)F)cc1)c1ccc(-n2cnnn2)cc1`, the “hERG current change (%, negative = inhibition) at 1uM” value is -0.265%.

Turning to `O=C(c1cc(-c2ccccc2)on1)N1CCCCCC1`, the “hERG current change (%, negative = inhibition) at 1uM” value was 13.7%.

As to `O=C(NCCc1ccccc1)c1ccc2nc3cc(Cl)ccc3c(=O)n2c1`, the “hERG current change (%, negative = inhibition) at 1uM” value was determined as 18.9%.

Regarding `O=C(c1ccc(F)c(S(=O)(=O)N2CCOCC2)c1)N1CCN(c2ncccn2)CC1`, the “hERG current change (%, negative = inhibition) at 1uM” value is 7.59%.

In the case of `COc1ccc(C(=O)CNc2ccccc2CO)cc1`, the “hERG current change (%, negative = inhibition) at 1uM” value is 21.2%.

Turning to `CCc1ccccc1N(CC(=O)N1CCCCC1)S(=O)(=O)c1ccccc1`, the “hERG current change (%, negative = inhibition) at 1uM” value amounted to 14.5%.

For `CCN(Cc1ccncc1)C(=O)c1cccs1`, the “hERG current change (%, negative = inhibition) at 1uM” value was 7.16%.

Take `Cn1c(SCC(=O)NCC2CCCO2)ncc(C(=O)Nc2ccc(F)cc2)c1=O` (centres unmarked): the “hERG current change (%, negative = inhibition) at 1uM” value was found to be 5.38%.

Turning to `Cc1ccc(NC2CCCN(C(=O)c3ccoc3)C2)cc1C` (centres unmarked), the “hERG current change (%, negative = inhibition) at 1uM” value came out at 14.4%.

`C=CCc1ccccc1OCC(O)CNC(C)C.Cl` (centres unmarked): the “hERG current change (%, negative = inhibition) at 1uM” value is reported as -9.57%.

`O=C(N/N=C/c1ccc([N+](=O)[O-])o1)c1cn2ccc3ccccc3c2n1`: the “hERG current change (%, negative = inhibition) at 1uM” value is 8.95%.

In the case of `CCNC(=O)C(=O)Nc1ccc([N+](=O)[O-])cc1`, the “hERG current change (%, negative = inhibition) at 1uM” value is on record as 10%.

Turning to `Cn1c(=O)n(CC(=O)Nc2ccccc2)c2ccccc21`, the “hERG current change (%, negative = inhibition) at 1uM” value is reported as 2.53%.
